Reference: the supplement of paper PMC3334620
In all, about 33,000 sequences were measured (“E-score (-0.5 to 0.5)”: median about -0.04, highest 2% from about 0.36 on). Some of the results follow.

These sequences were tested against T1, Hmlalpha2 (UniProt P0CY09) (assay: PBM E-score (8-mer binding enrichment) (E-score (-0.5 to 0.5)); higher = stronger / more preferred TF binding; most listed sequences are background and not binding sites). Conditions: protein concentration: 200 nM; construct: GST-full length.
T1 sequence: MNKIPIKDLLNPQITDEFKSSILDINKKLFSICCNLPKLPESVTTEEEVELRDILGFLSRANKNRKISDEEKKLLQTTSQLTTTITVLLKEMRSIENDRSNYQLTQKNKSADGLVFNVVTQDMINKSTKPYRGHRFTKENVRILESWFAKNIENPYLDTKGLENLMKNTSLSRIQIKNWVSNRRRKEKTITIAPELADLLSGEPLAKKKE
In short: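 Yeast transcription factors, full-length or as DNA-binding domains, were expressed with a GST tag using PURExpress in vitro transcription/translation. At about 100-200 nM they were applied to universal all-10-mer Agilent arrays, double-stranded by primer extension on fresh or once-stripped slides. Fluorescent anti-GST detected bound protein, and masliner normalised the scans. E-scores for ungapped eight-base words, pooled with reverse complements, came from the Universal PBM Analysis Suite.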

Sequence | PBM E-score
AACACATT | 0.291
AGTTGTCG | 0.1
ACTATGCT | 0.0922
GAAATGGA | -0.105
AACTCGGG | -0.0416
ACCCGCGA | -0.0316
AGATGTCG | -0.0668
GGCAACCC | -0.304
CATGGTCG | -0.0159
CCTAAGAC | -0.124
AGGCGGCA | -0.156
CATTCATA | 0.143
ACCCTAAG | -0.228
TAGGTGAA | 0.169
ATGTGTTA | 0.429
CTCCCCAG | -0.343
TCTCTTCA | -0.166
AAAGCCTA | 0.0525
AGTCTCGC | -0.156
CTAGGGCA | -0.382
AACGGCAA | 0.0509
CGCGTAAA | 0.454
GCGACCAA | -0.0947
GAATCCTA | 0.029
ATGCATCC | -0.287

Sequence | PBM E-score
ATGCATAA | 0.147
CCTGCACA | -0.221
CCCGGTAC | -0.159
CTTGGTGC | -0.143
ACCTTGGC | -0.242
CAAACATG | 0.34
CTTGGTTC | -0.019
TGCGTCCA | -0.0642
AGTTCGTA | 0.0615
AGCCAAAA | 0.077
CACAATAC | 0.114
ACGTCGTC | 0.187
CTTCCGCA | -0.157
CGAGTGGC | -0.219
CTGGAAAG | -0.217
ACATATCA | 0.229
CTATGGAA | -0.0395
GAATACCA | 0.109
GTAGGAAC | 0.101
TCCCTACA | 0.0844
AAGCCGGG | -0.177
AAAGGGGC | -0.146
CGTTGTGA | 0.12
CCTCTCAC | -0.127
CGGCATAA | -0.0207

Sequence | PBM E-score
GACTATGA | -0.311
CACAGAAA | 0.0577
CCCAAGTC | -0.242
CTGCCTCC | -0.265
CTCAGGGC | -0.295
GAAACGCA | 0.0447
TTAACCAA | 0.193
CTTGTTTC | 0.0713
GATGAACA | 0.239
ATCTTCAT | -0.125
ACCCTCTA | -0.18
AAAATTAT | 0.269
CATCTTTA | 0.177
AACTGCGT | 0.257
ACATGGAT | 0.388
ATCCGGAA | -0.0274
AACGACAC | 0.161
ATAGTCCC | -0.131
ATCAGAGC | -0.225
CTAGCCCC | -0.172
ATACGTTA | 0.255
AACGATAG | -0.0537
GCACTAGA | -0.237
CCTCGTGC | -0.0876
CCTCGGAA | -0.187

Sequence | PBM E-score
GCTTAGCA | -0.0761
ACTCATAG | -0.169
CAAGCGAC | 0.0382
CTCAATAA | -0.0492
AGTCCAAT | 0.0203
TCAACACA | 0.43
TACCGTAA | 0.121
GCGCGGCA | -0.0662
GCTATCGA | -0.235
AGGGCACG | -0.222
AAAGGGTC | -0.128
GTAGTCCA | 0.0432
CTCCTCAC | -0.262
ATGGGCGA | -0.175
ACTATGAA | 0.00774
CGCAGCTC | -0.054
ATGGCAGG | -0.256
GTCCGCAA | -0.224
GCCTTTCA | -0.215
GGAGTCAC | -0.228
AGACAAGG | 0.0129
CGGCAGCA | -0.15
TCGTGGCA | 0.0265
CGACTTCC | -0.102
GCGCTTAA | -0.00823

Sequence | PBM E-score
AAATACTC | 0.0334
GCGTCTAA | 0.0136
CGAGAGGC | -0.268
ACCTACCA | -0.136
AGGTCGCG | -0.156
CGCTAGAA | -0.237
ATGGCGGG | -0.264
ACTTATCC | -0.0606
AGTTGAGG | -0.156
GCCTGGAC | -0.156
AAGGTTTC | -0.0464
ACCTGCTA | -0.104
GAGCTTGA | -0.0765
CGGAACCC | -0.13
ATTGAATC | -0.00112
AGAGAAGG | -0.317
AGACTAAG | -0.0834
ATTTCACG | 0.0853
GGAAAATA | 0.063
GAGCCTGA | -0.237
CCATAACG | -0.0424
AACGTCTA | 0.039
GAAGGTTA | -0.023
ATAACTTC | 0.104
GCCACTGA | -0.155

Sequence | PBM E-score
CCCTTGAG | -0.247
AAGGAGGA | -0.0636
GTAGAGGA | -0.0447
CATTTGTC | 0.0765
CATGAGGG | -0.0525
GCCAGAGA | -0.337
CATACTGA | 0.0935
ACCCTCGG | -0.155
GACATACA | 0.315
ACTAACTG | 0.0122
AACGCCGT | 0.0331
AATCAGCG | 0.0106
GCTGTATA | 0.153
ACACTGGA | 0.106
AAATTCTC | -0.0944
GCATGGGA | -0.142
GATCCCAA | -0.203
CGACCTGA | 0.0768
CCTATTGC | -0.112
AAATACCT | -0.00338
AAGACTGC | -0.135
TAAATAGA | 0.0679
AGCGACTG | 0.0914
ACACAGCA | 0.358
CAGGAGCA | -0.173

Sequence | PBM E-score
CATCGTCC | -0.0774
GCGGCCGA | -0.0773
ATCACACG | 0.371
CGGTTTGA | -0.00743
ATTCTGAA | -0.0572
AGGGTTTG | -0.0574
AAGTTTAG | 0.0291
CACCGCGC | -0.194
CCGAGCGG | -0.261
AGGAATCG | -0.0981
AGCCTCAG | -0.219
GTCATTTA | 0.129
CATGGTGC | -0.0596
AAAGATTG | -0.157
CGGTTTGC | -0.0322
ACTTAGGG | -0.0611
CTGAATCC | -0.154
GGGCGGCA | -0.297
ATTGGTGA | -0.232
CGTGGTGC | -0.085
GGATGAGA | -0.127
CCACATGC | 0.137
